# This is one part of the list.
# Test system: T1, C. trachomatis L2/434/Bu expressing GFP (CTL2-GFP)
# T1 construct: L2/434/Bu GFP intracellular growth in HeLa cells
# Design: species or system HeLa; C. trachomatis total inclusion area by high-content imaging, normalised to DMSO
# Conditions: total inclusion area; 28.5 h, 10 µM; inhibitor
# How it was run: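 After bulk GFP and resorufin fluorescence reads, cells were fixed, stained with Hoechst and imaged by high-content microscopy. Inclusion area and number (GFP) stood in for chlamydial growth, nuclei count (Hoechst) for host cell viability. MICs were derived as for the bulk readout.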
row,SMILES,% of control remaining
1,COc1ccc(-c2ncc(OCc3cccs3)nc2N)c(OC)c1 [CBK145088],116.985
2,CC(C)c1ccc(S(=O)(=O)Nc2ccon2)cc1 [CBK044584],110.683
3,COc1ccccc1-c1nccnc1OCCc1c[nH]c2ccccc12 [CBK106807],56.2944
4,CCN(CC)C(=O)C1CCCN(C(=O)NCC(c2ccccc2)c2ccccc2)C1 (stereo not shown) [CBK156145],33.6963
5,O=C(Nc1ccccc1C(=O)O)c1cccc(S(=O)(=O)NCc2ccccc2)c1 [CBK261258],63.9011
6,O=C(NNc1ccccc1)c1c(O)c2ccccc2oc1=O [CBK260878],109.944
7,OC(CNCc1cccs1)COc1cccc2c1CCCC2 (stereo not shown) [CBK002239],90.7929
8,O=C(N/N=C/c1ccccc1)c1ccccn1 [CBK261640],104.82
9,OC1(c2ccc(F)cc2)COC2(CCNCC2)C1 (stereo not shown) [CBK284214],73.909
10,O=C(O)c1ccc(COc2ccc3ccccc3c2/C=C2/NC(=O)N(c3ccccc3)C2=O)cc1 [CBK265124],97.4428
11,COc1ccnc(C(=O)N(Cc2ccccn2)CC2CCCO2)c1 (stereo not shown) [CBK307303],68.9603
12,COc1ccc(-c2csc(NC(=O)NS(=O)(=O)c3ccc(C)cc3)n2)cc1 [CBK296117],104.928
13,CCOc1ccccc1-c1ccccc1NC(=O)c1ccc2c(c1)ncn2C1CC1 [CBK285808],84.699
14,CCOC(=O)N1CCN(S(=O)(=O)c2cc(C(=O)O)c(Cl)cc2Cl)CC1 [CBK296975],62.463
15,Cc1cc(COC(=O)c2nn(-c3ccc(F)cc3)c3c2CCCC3)on1 [CBK295305],100.95
16,O=C(Nc1ccc(Cl)cc1)N1CCC(n2c(=O)[nH]c3ccccc32)CC1 [CBK149850],124.782
17,COc1ccc(C(c2ccccc2C)N(C)C(=O)C2CCN(C(C)=O)CC2)cn1 (stereo not shown) [CBK060490],89.3622
18,Cc1cc(C)nc(N/C(=N\C(=S)Nc2cccc(Cl)c2C)NCc2cccnc2)n1 [CBK267254],81.7148
19,O=C(Nc1ccc(F)cc1)c1ccccc1NS(=O)(=O)c1cc(Br)c(Cl)s1 [CBK045405],66.9216
20,COC(=O)[C@H]1O[C@H](c2ccccc2)[C@@H]2C(=O)N(C)C(=O)[C@@H]21 [CBK009058],28.6706

row,SMILES,% of control remaining
1,COCc1cn([C@H]2CO[C@H]3[C@@H]2OC[C@@H]3NC(=O)c2ccc(OC)cc2)nn1 [CBK289494],88.9512
2,CCCN(CCC)CCc1cccc2c1CCN2C(=O)c1cc2ccccc2s1 [CBK017871C],0.9114
3,O=C(c1ccc(F)cc1)N1CCC(c2cc3cnccc3[nH]2)CC1 [CBK283445],77.2598
4,O=c1oc2ccccc2n1Cc1coc(-c2ccccc2)n1 [CBK296649],95.4948
5,O=c1c(I)coc2ccc(Cl)cc12 [CBK005364],67.5043
6,CCc1nn2c(=O)cc(CN3C(=O)COc4cccnc43)nc2s1 [CBK306599],66.8814
7,COCC1(C(=O)N2CC(=O)N(c3ccc(C)cc3)CC2C)CCC1 (stereo not shown) [CBK307606],67.4137
8,CN(C)CCCN(Cc1cnn(-c2ccccc2)c1)Cc1ccco1 [CBK283040],69.7807
9,COC(=O)CCn1c(-c2cccnc2C)cc2cccnc21 [CBK282593],103.148
10,CC(NC(=O)c1cnc2n(c1=O)CCS2)c1ccccc1 (stereo not shown) [CBK287372],85.4211
11,CC(C)(C)OC(=O)N1CCCC2(CCCN(C(=O)c3ccco3)C2)C1 (stereo not shown) [CBK284463],82.8177
12,O=C(c1cncnc1)N1CCC2(CCN(Cc3ccccc3)CC2)C1 [CBK136782],105.548
13,CC1(C)CC(=O)c2sc(NC(=O)c3cccc(C(F)(F)F)c3)nc2C1 [CBK019941],70.3148
14,CS(=O)(=O)Nc1nccnc1OC1CCN(CCCO)CC1 [CBK084275],79.8069
15,C#CCNC(=O)[C@H]1O[C@H](CCN2CCOCC2)CC[C@@H]1O [CBK288729],92.2298
16,N#Cc1ccc(C(=O)N2C[C@@H]3C[C@H](C2)c2ccc(-c4cccc(C#N)c4)c(=O)n2C3)cc1 [CBK289187],87.7968
17,CCOC(=O)c1nc(-c2ccccc2)sc1C(C)=O [CBK067739],78.1166
18,Cc1ccc(C(=O)CC(C(=O)O)P(=O)(c2ccccc2)c2ccccc2)cc1 (stereo not shown) [CBK265022],93.8093
19,O=C(NCCOc1ccccc1)NC(=O)C1CCNCC1 [CBK088187T],71.5657
20,Oc1ccc(-c2cccc(N3CCN(c4ccccn4)CC3)n2)cc1 [CBK037028],95.5308

# From PMC12040169 (PLOS Biology, 2025)
